Laboratory results published in PubChem BioAssay AID1159614 (National Center for Advancing Translational Sciences (NCATS), 2016).
Hit rate of the full screen: of about 45,000 compounds, about 65 (0.1%) were called active. The call rests on the fitted dose curve; in most records, active means well fitted activation curve with a large enough effect; inconclusive means small, poorly fitted or top-dose-only effect; inactive means no such curve, though single readings can be large or run the other way. The list shows a part of the results.

target: Galactocerebrosidase (Homo sapiens) (UniProt P54803); assay: A Novel Cell-Based Assay to Identify Small Molecules for B -Galactocerebrosidase; details: 145M-Twi-hGALC-G270D cells (Twitcher mouse brain line with human GALC G270D), HMU-beta-Gal fluorescence, 48 h; series mostly up to 57.5 µM; activation: at the top concentration; further: 0% is about no effect; nearly all actives have a fitted effect of over 65% in size
UniProt P54803, sequence (P54803 whole entry, looked up): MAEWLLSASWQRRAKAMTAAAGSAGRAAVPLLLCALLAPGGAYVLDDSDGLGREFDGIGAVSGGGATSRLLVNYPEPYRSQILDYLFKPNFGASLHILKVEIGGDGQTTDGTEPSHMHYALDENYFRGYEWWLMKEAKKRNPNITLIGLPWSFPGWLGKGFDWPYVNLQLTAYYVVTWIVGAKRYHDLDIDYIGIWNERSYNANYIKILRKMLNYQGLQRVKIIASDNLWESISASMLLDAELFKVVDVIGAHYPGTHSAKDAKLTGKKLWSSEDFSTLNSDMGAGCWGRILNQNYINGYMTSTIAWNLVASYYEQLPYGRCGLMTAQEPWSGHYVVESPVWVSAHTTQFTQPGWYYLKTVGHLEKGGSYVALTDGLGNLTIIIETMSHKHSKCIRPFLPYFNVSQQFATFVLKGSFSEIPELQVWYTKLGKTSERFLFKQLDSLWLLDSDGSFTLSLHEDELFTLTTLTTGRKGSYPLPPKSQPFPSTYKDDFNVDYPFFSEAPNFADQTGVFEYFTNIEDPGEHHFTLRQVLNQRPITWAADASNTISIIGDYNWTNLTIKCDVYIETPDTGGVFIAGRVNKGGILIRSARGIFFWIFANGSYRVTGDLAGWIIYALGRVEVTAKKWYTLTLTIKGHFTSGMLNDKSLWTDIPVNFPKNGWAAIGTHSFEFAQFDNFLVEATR
Summary of the method: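 Fluorogenic HMU-b-Gal hydrolysis (0.1 mM final, pH 5.2 citrate-phosphate with 1 mg/mL sodium taurocholate; carbonate stop buffer) measures mutant GALC activity after compound treatment of live 145M-Twi Twitcher brain cells stably carrying human GALC-G270D, with wild-type GALC line alongside; activation sought.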

activation, inactive:
COc1ccc(C(=O)c2cn(Cc3cccc(C)c3)c3cc4c(cc3c2=O)OCO4)cc1 -10.2%, CS(=O)(=O)n1nc(-c2ccco2)nc1NCc1ccccc1Cl -27.9%, COc1ccc(CC(=O)NCCc2csc(-c3ccc(C(F)(F)F)cc3)n2)cc1 -9.83%, CCc1ccccc1NC(=O)Cn1c(=O)n(CC(=O)NCCc2ccccc2)c(=O)c2ccccc21 -10.2%, CCOC(=O)c1[nH]c(C)c(C(=O)NCc2cccc(OC)c2)c1C -9.55%, COc1cc(Cl)c(C)cc1NC(=O)CSc1cc(-c2ccccc2)nc(C)n1 -12.2%, COc1ccc(C2CC(=O)Nc3c2c(=O)n(C)c2nc4ccccc4n32)cc1 (stereo not drawn) -7.36%, COc1ccc(-c2noc(-c3ccc(C)cc3Cl)n2)cc1OC -11.6%, Cn1c(=O)c2c(SCC(=O)NCc3ccc(F)cc3)nc(-c3ccccc3Cl)nc2n(C)c1=O -1.98%, Cc1ccc(NS(=O)(=O)c2ccc3c(c2)[C@H]2C=CC[C@H]2[C@@H](c2ccc(F)cc2)N3)cc1C -9.55%, COC(=O)c1sc2cccc(F)c2c1S(=O)(=O)Nc1ccc(C)cc1Cl -3.96%, Cc1c(/C=C(\C#N)C(=O)Nc2cccc(Cl)c2)c2ccccc2n1Cc1ccccc1 -23.3%, Cc1ccc(SCc2nc(-c3ccc(C(=O)Nc4cc(C)ccc4C)cc3)oc2C)cc1 -18.3%, O=C(Nc1nnc(C2CC(=O)N(c3ccc(Cl)cc3)C2)s1)c1ccco1 (stereo not drawn) -10.9%, O=C(Nc1ccc2[nH]c(=O)c(=O)[nH]c2c1)c1cccc(F)c1 -15%, COc1ccccc1N1CCN(C(=O)CCn2nc(C)c(S(=O)(=O)N3CCCC3)c2C)CC1 -7.95%, NC(=O)NS(=O)(=O)c1ccc(N)cc1 -16.2%, Cc1ccc(NC(=O)CSc2nc3ccc(NC(=O)COc4ccc(C)cc4)cc3s2)cc1 -20.5%, Cc1nc2nc(SCC(=O)NCCc3ccc(Cl)cc3)nn2c(C)c1Cc1ccccc1Cl -10.3%, Cc1ccccc1C1=CCN(c2ncc(NC(=O)c3ccc(Cl)cc3)cc2C(=O)O)CC1 -18%, Cc1nc2c(-c3ccccc3)c(C)nn2c(C)c1CCC(=O)Nc1ccccc1F 3.72%, CCOC(=O)c1scc(-c2ccc(C)cc2)c1S(=O)(=O)N1CCN(c2ccccc2)CC1 -1.82%, Cc1cc(C)cc(NC(=O)C2CCN(c3nnc(-n4c(C)ccc4C)s3)CC2)c1 -0.699%, COc1ccc(S(=O)(=O)N(CC(=O)Nc2ccc(C)cc2)c2ccc(C)cc2)cc1OC -23.8%, CC(=O)c1ccc(NS(=O)(=O)c2ccc3[nH]c(=O)[nH]c3c2)cc1 -8.51%, COc1ccc(-n2c(SCC(=O)Nc3ccc4c(c3)OCO4)nc3c([nH]c4ccccc43)c2=O)cc1 -12.7%, CCOc1cc(C(=O)Nc2ccc3nc(N4CCN(C)CC4)cc(C)c3c2)cc(OCC)c1OCC -10.7%, CCc1cccc(NC(=O)CN(C)S(=O)(=O)c2ccc3c(c2)n(C)c(=O)c(=O)n3C)c1 -5.55%, COc1ccc(-c2noc(COc3ccc(C)cc3C)n2)cc1OC -17.4%, CCOc1ccccc1NC(=O)CN(c1cc(C)cc(C)c1)S(=O)(=O)c1c(C)nn(C)c1C -11.3%, Cc1cc(C)c(Cn2cnc3nc4c(cc3c2=O)CCCC4)c(C)c1 -32.5%, O=C(CN1C(=O)c2ccccc2Sc2ncccc21)Nc1cccc(C(F)(F)F)c1 -19.7%, Cc1cccc(N2CCN(C(=O)CCNS(=O)(=O)c3ccc4c(c3)CCN4C(=O)C3CC3)CC2)c1C -35.9%, COc1ccc2nc(NC(=O)c3nc(S(=O)(=O)Cc4ccc(C)cc4)ncc3Cl)sc2c1 -26.2%, COc1cccc(CNC(=O)C2=C(C)C(=O)OC23CCCCCC3)c1 -11.4%, COc1ccc(Nc2cc(C)c3cc(NC(=O)COc4cccc(C)c4)ccc3n2)cc1 -9.7%, CCOc1ccc(S(=O)(=O)N(CC(=O)Nc2ccc(OC)c(Cl)c2)c2ccccc2)cc1 -16%, Cc1ccc(-c2nnc(Nc3ccc(O)cc3)c3ccccc23)cc1S(=O)(=O)NC(C)(C)CO 26.9%, Cc1nn2c(C)c(C(=O)NCc3cccc(Br)c3)cnc2c1-c1ccccc1 -14.5%, CCOc1ccc(NC(=O)N2CCC(n3c(C)nc4cccnc43)CC2)cc1 -1.44%, CCOc1ccc(C(=O)NCC(c2ccc3c(c2)OCO3)N2CCN(C)CC2)cc1 (stereo not drawn) -9.84%, COc1ccc(Nc2nc3c(S(=O)(=O)c4ccc(C)cc4)nnn3c3ccsc23)cc1Cl -5.77%, CC(=O)N1CCc2c(sc3c2c(=O)n(Cc2ccccc2)c(=O)n3Cc2ccccc2Cl)C1 -0.69%, Cc1ccc(/C=C/c2onc(C)c2S(=O)(=O)N2CCC(C(=O)N3CCN(c4cc(C)ccc4C)CC3)CC2)cc1 -13%, Cc1ccc(Cl)cc1N1CCN(C(=O)COc2cc(=O)n(C)c3ccccc23)CC1 -8.77%, COc1cc2c(cc1OC)C(COc1ccccc1OC)N(C(=O)c1ccc(S(=O)(=O)N(C)C)cc1)CC2 (stereo not drawn) -3.54%, CC1CCN(S(=O)(=O)c2ccc3c(c2)N(CC(=O)NC(C)(C)C)C(=O)CS3)CC1 -17.8%, COc1ccc(Nc2oc(/C=C/c3cc(OC)c(OC)c(OC)c3)nc2C#N)cc1 -10.5%, COc1cccc(CNC(=O)Cn2c(=O)nc(-c3ccccc3F)c3cc(Cl)ccc32)c1 -15%, CCCCN(CC)C(=O)CSc1nc2ccccc2c(=O)n1Cc1ccco1 -7.74%, COc1cc(-c2nc(-c3ccccc3)c(-c3ccc(Br)cc3)[nH]2)cc(OC)c1O 3.69%, CCC1CCCCN1CCCNC(=O)c1c(O)nc2cc(C)ccn2c1=O (stereo not drawn) -6.89%, CC1CN(C(=O)N2CCC(C(=O)NCc3cccs3)CC2)c2ccccc2O1 (stereo not drawn) -19.5%, COC(=O)c1cc2sc(Cl)cc2n1Cc1nc(-c2ccccc2C)oc1C -25%, COc1ccc(NC(=O)C2CCN(c3ccc(Sc4ccc(C)cc4)nn3)CC2)cc1 2.93%, COc1ccc(NC(=O)c2ccco2)cc1NC(=O)c1cc(Br)ccc1Cl -6.41%, CCOc1ccc(C(=O)c2oc3ccccc3c2NC(=O)c2cc(=O)c3ccc(C)cc3o2)cc1 -13.6%, COc1ccccc1C(=O)Nc1ccc(S(=O)(=O)Nc2nc(C)cc(C)n2)cc1 -3.95%, Cc1oc2ncnc(N3CCCCC3)c2c1C(=O)N1CCN(c2ccc(Cl)cc2)CC1 -18.3%, CCOC(=O)c1ccccc1NC(=O)CSc1cn(CC(=O)N2CCCCCC2)c2ccccc12 -14.9%, COc1ccc(S(=O)(=O)N(CC(=O)NCCc2ccccc2)c2ccc(Cl)cc2)cc1 3.96%, CCCCN(CC)CCNC(=O)c1nn(C)c2c1CS(=O)(=O)c1ccccc1-2 -7.63%, CCc1ccc(NC(=O)CCCc2nnc3n(C(C)CC)c(=O)c4sccc4n23)cc1 (stereo not drawn) 5.4%, Cc1ccc(NC(=O)CSc2nnc(NC(=O)NC3CCCCC3)s2)cc1 -17.4%, COc1ccc(-c2nc3c4ccccc4n(CC(=O)N4CCN(c5ccccc5F)CC4)c(=O)n3n2)cc1 -3.19%, COc1cc(C)ccc1OCCSc1nc2ccc(NC(=O)c3ccccc3F)cc2s1 -10.9%, O=C(Cn1c(=O)n(CC2CCCO2)c(=O)c2ccccc21)Nc1ccc(F)cc1F (stereo not drawn) -3.55%, COC(=O)c1cc(NC(=O)Cn2nc(-c3ccccc3)c3c(c2=O)CCCC3)cc(C(=O)OC)c1 1.44%, N#C/C(=C/c1ccccc1Cl)c1nc(-c2cc3ccccc3oc2=O)cs1 -5.99%, CCc1ccc(-c2cc(C)no2)cc1S(=O)(=O)NCc1ccc(OC)cc1 -8.35%, Fc1ccc(NCc2ccccc2-c2nnc(-c3ccccc3Cl)o2)cc1Cl -17.6%, CCOc1ccc(-n2c(=O)c3c(C)c(C)sc3n(Cc3ccc(C(C)(C)C)cc3)c2=O)cc1 26.5%, CCN(CC)C(=O)Cn1c(=O)n(CCCCCC(=O)NCc2ccc(C)cc2)c(=O)c2sccc21 -8.62%, Cc1sc2ncn(CC(=O)N3CCN(c4cccc(Cl)c4)CC3)c(=O)c2c1S(=O)(=O)N1CCC(C)CC1 -12.7%, Cc1cccc2cc(-c3nc(-c4cccs4)no3)c(=O)oc12 -7.09%, CCOc1ccc(C(c2c(O)cc(C)n(CCOC)c2=O)N2CCN(c3ccc(F)cc3)CC2)cc1 (stereo not drawn) -2.45%, COc1cccc(C(=O)N2CCc3cc(OC)c(OC)cc3C2COc2ccc3c(C)cc(=O)oc3c2)c1 (stereo not drawn) 8.19%, CCn1cc(S(=O)(=O)c2cc(C)cc(C)c2)c(=O)c2cc(F)c(N3CCN(c4ccccc4)CC3)cc21 -4.22%, CCCCCN=C(N)N/N=C/c1c[nH]c2ccc(OC)cc12 -16.4%, CCCCNC(=O)Cn1nc(N2CCN(c3ccccc3OC)CC2)ccc1=O 2.59%, COc1ccc(Cl)cc1NC(=O)COc1cccc2c(=O)n(C)ccc12 -8.43%, COC(=O)c1ccc(NC(=O)CN(C)S(=O)(=O)c2ccc3c(c2)CCCC(=O)N3)cc1 -0.472%, COCCn1c(C)cc(O)c(C(c2ccccc2Cl)N2CCN(c3ccccc3)CC2)c1=O (stereo not drawn) -10.2%, CCCCN(C(=O)CCn1c(=O)oc2ccccc21)c1ccccc1 -15.8%, COc1ccc(OCC(=O)N2CCN(C(=O)c3cccc(OC)c3OC)CC2)cc1 1.02%, CCOc1ccc(-c2cc(CCCC(=O)NCCc3ccc(SC)cc3)no2)cc1 -13.2%, Cc1ccc2[nH]c(C)c(CCNC(=O)c3cc4cc(Br)ccc4oc3=O)c2c1 2.84%, Cc1cccc(NC(=O)Cn2c(=O)n(CC3CCC(C(=O)NCCc4ccccc4)CC3)c(=O)c3ccccc32)c1C (stereo not drawn) -14.2%, O=C(NCC(c1cccnc1)N1CCc2ccccc21)c1cccc(F)c1 (stereo not drawn) -9.99%, CCOC(=O)c1ccc(NC(=O)c2c(NCc3ccc(OC)c(OC)c3OC)sc3c2CCC(C)C3)cc1 (stereo not drawn) -9.52%, CCN(CC)C(=O)c1sc2c(c1C)c(=O)n(Cc1ccccc1)c(=O)n2Cc1c(C)cc(C)cc1C -7.37%, O=C(NCC(c1ccco1)S(=O)(=O)c1cccs1)c1c(F)cccc1F (stereo not drawn) -22.6%, CCOc1ccccc1CNC(=O)CCCn1c(=O)c2cccn2c2ccc(F)cc21 2.3%
